Results from ChEMBL document CHEMBL1201862, “PubChem BioAssay data set” (2004).
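Values below derive from 48-hour exposures of cells grown in 96-well plates, with endpoints linearly interpolated between the two concentrations bracketing the appropriate inhibition level. GI50 is the concentration that inhibits growth by half.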 The source made the active and inactive calls. Rule as the data show it: active = GI50 up to about 1.1 µM and inactive = higher.

Tested on: NCI-H322M
Assay: NCI-60 cell line screen, 48 h

Row | Compound | GI50
1 | CCOC(=O)c1c(N=C(S)Nc2ccccc2)sc2c1CCN(C)C2 | inactive: > 100 µM
2 | Nc1ccc(N(S(=O)(=O)c2ccccc2)S(=O)(=O)c2ccccc2)c(Cl)c1 | inactive: > 100 µM
3 | COc1ccc2c(c1)[n+]([O-])c(C(C)=O)c(C)[n+]2[O-] | inactive: > 100 µM
4 | COc1ccc(-c2cc(O)c3cc(Cl)ccc3n2)cc1 | inactive: > 100 µM
5 | CCOC(=O)c1csc(NC(=O)CN2CCN(C)CC2)n1 | inactive: > 100 µM
6 | C=Cc1cc2c(cc1O)CC[C@@H]1[C@@H]2CC[C@]2(C)[C@@H](O)CC[C@@H]12 | inactive: 3.58 µM
7 | COc1ccc(/C=C2\C(=O)NC(=O)c3ccccc32)cc1OC | inactive: > 93.8 µM
8 | CN(CC(=O)O)CC(=O)O | inactive: > 100 µM
9 | Nc1n[c-](N)[n+](=O)c(N)c1NCO | inactive: > 100 µM
10 | NCCC(=O)NC(Cc1c[nH]cn1)C(=O)O (configuration not stated) | inactive: > 100 µM
11 | COc1cc2c(cc1OC)C13CCN4CC5=CCOC(CC(=O)O)C(C5CC41)C3N2 (configuration not stated) | inactive: > 100 µM
12 | Cc1ccc(S(=O)(=O)NC(=O)NC2=NC(C)(C)N(c3ccc(Cl)c(Cl)c3)C(N)=N2)cc1 | inactive: 6.67 µM
13 | CCCC(=O)O[C@H]1C=C2C[C@@]34SS[C@]5(CC6=C[C@H](OC(C)=O)[C@@H]7O[C@@H]7[C@H]6N5C3=O)C(=O)N4[C@@H]2[C@H]2O[C@H]21 | active: 0.0184 µM
14 | CC(=O)NC1=CC(=O)C=C(Cl)C1=O | inactive: > 100 µM
15 | O=C(O)CN1CCN2CCOCCOCCN(CC1)CCN(CC(=O)O)CC2 | inactive: > 100 µM
16 | COc1c2c(cc3c(CCc4ccccc4)cc(=O)oc13)CCC(C)(C)O2 | inactive: > 100 µM
17 | C/C=C/C1=CC(=O)C(O)C1O (configuration not stated) | inactive: 30.8 µM
18 | CCCCc1c2cnccc2c(CCCC)c2c1[nH]c1ccccc12 | inactive: 15.3 µM
19 | CC(=O)OCCCCn1cc(Cn2ccc(=O)n(Cc3cn(CCCCOC(C)=O)nn3)c2=O)nn1 | inactive: > 100 µM
20 | C/C(=N\NS(=O)(=O)c1ccc(C)cc1)P(=O)(O)O | inactive: > 100 µM
21 | Nc1ncc(CN2CCOCC2)c(-c2ccccc2O)n1 | inactive: > 100 µM
22 | COc1cc2c(cc1OC)-c1c(cnn1C1OC(COC(C)=O)C(OC(C)=O)C(OC(C)=O)C1OC(C)=O)CC2 (configuration not stated) | inactive: > 100 µM
23 | NC(=O)N/N=C\c1ccccc1OCc1cccc(COc2ccccc2/C=N\NC(N)=O)n1 | inactive: 23.9 µM
24 | CCCCCCc1cc2cc(C(=O)Nc3ccc(F)cc3)c(=N)oc2cc1O | inactive: 5.11 µM
25 | NC(=O)Cn1c(=O)[nH]c(=O)c2[nH]cnc21 | inactive: > 100 µM

Row | Compound | GI50
26 | CCOC(=O)/C(=C\c1cccc(C)c1)C(C)=O | inactive: 14.7 µM
27 | c1ccc2c(c1)N=C(c1cccc3ccccc13)CC(c1cccc3ccccc13)S2 (configuration not stated) | inactive: 13.8 µM
28 | CNNC1=NS(=O)(=O)c2cc(C)c(Cl)cc2S1 | inactive: > 10 µM
29 | CCOC(=O)C(NC(=O)c1ccccc1)(c1ccc(S(=O)(=O)Nc2onc(C)c2C)cc1)C(F)(F)F (configuration not stated) | inactive: > 100 µM
30 | Clc1ccc(CCc2ccncn2)c(Cl)c1 | inactive: > 100 µM
31 | O=[N+]([O-])C(/C=C(\Cl)[N+](=O)[O-])=C(N1CCOCC1)N1CCOCC1 | inactive: > 100 µM
32 | O=C(O)c1ccc2c(c1)Cc1cc([N+](=O)[O-])ccc1-2 | inactive: > 100 µM
33 | CN(C)c1c(C2OC(CO)C(O)C2O)c(=O)c1=O (configuration not stated) | inactive: > 100 µM
34 | CC(C)(Cl)C(Cl)CC/C(CBr)=C(\Cl)CBr (configuration not stated) | inactive: 13.4 µM
35 | Cc1ccnc2nc(N)ccc12 | inactive: > 100 µM
36 | Oc1ccccc1-c1nn2c(CCCCCCCCc3nnc4sc(-c5ccccc5O)nn34)nnc2s1 | inactive: 13.1 µM
37 | CCOC(=O)C1=C(C)NC(=O)N([N+](=O)[O-])C1c1ccccc1C(F)(F)F (configuration not stated) | inactive: > 100 µM
38 | COC(=O)[C@@H]1C[C@@]23CCCN4CC[C@@]5(c6cccc(OC)c6N(C=O)[C@]15CC2)[C@@H]43 | inactive: > 100 µM
39 | CCC(=O)c1c(NOC2OCC(OC(C)=O)C(OC(C)=O)C2OC(C)=O)nc(OC)n(C)c1=O (configuration not stated) | inactive: > 100 µM
40 | O=C1/C(=C\c2cccc(Oc3ccccc3)c2)SC(c2ccccc2)N1c1cccc([N+](=O)[O-])c1 (configuration not stated) | inactive: > 100 µM
41 | Nc1ncnn2c(C3OC(CO)C(O)C3O)ccc12 (configuration not stated) | active: 0.152 µM
42 | N=C(N)N/N=C(\c1ccc(Cl)cc1)C1CC1 | inactive: 23.2 µM
43 | Fc1ccc(C(OCCN2CCC3CCC(C2)N3Cc2cc3ccccc3[nH]2)c2ccc(F)cc2)cc1 (configuration not stated) | inactive: 2.61 µM
44 | CCOC(=O)C(C)NC(=O)NC12CC3CC(CC(F)(C3)C1)C2 (configuration not stated) | inactive: > 100 µM
45 | COc1cc2c(c3oc(-c4ccc5c(c4)OCO5)c(O)c(=O)c13)CCC(C)(C)O2 | inactive: > 100 µM
46 | O=C(COc1cc(=O)oc2ccccc12)c1ccccc1 | inactive: 42.6 µM
47 | C/C(CC(=O)NCCc1ccccc1)=N\NC(=O)C[n+]1ccccc1 | inactive: > 100 µM
48 | CCCCC(C)/C=C/C(O)=C1\C(=O)O/C(=C\C(=O)O)C1=O (configuration not stated) | inactive: > 100 µM
49 | OC1CCCC1C(O)(C(F)(F)F)C(F)(F)F (configuration not stated) | inactive: > 100 µM
50 | COC(=O)CCC(=O)N1C/C(=C\c2ccccc2)C(=O)/C(=C/c2ccccc2)C1 | inactive: 4.85 µM

Row | Compound | GI50
51 | CC(C)(C)C1=C(Br)C(O)(C(C)(C)C)OP1(=O)c1ccccc1 (configuration not stated) | inactive: > 100 µM
52 | COC(=O)c1cc2c(cc1CC(Cc1ccc3c(c1)CCC3)C(=O)OC)CCC2 (configuration not stated) | inactive: > 100 µM
53 | Nc1nc(Cl)c(/C=N\O)c(NCC2(CO)CCC2)n1 | inactive: 22 µM
54 | COc1cc(Nc2cc(Cl)cc(Cl)c2)nc(N)n1 | inactive: 22.5 µM
55 | CC1=C(C(=O)Nc2ccccc2)C(c2ccc3c(c2)OCO3)C(C(=O)Nc2ccccc2)=C(C)N1 | inactive: 66.8 µM
56 | Cn1cc(C(=O)c2ccccc2)ccc1=O | inactive: > 100 µM
57 | CCCCN(CCCC)C1=Nc2ccccc2-n2c(nnc2C(=O)OCC)C1 | inactive: > 100 µM
58 | CCN(CC)CCCNc1nc(=O)[nH]c(C)c1C(=O)Nc1cccc2cc3ccccc3cc12 | inactive: > 100 µM
59 | CC1=C(C(=O)OCCO[N+](=O)[O-])C(c2ccccc2C(F)(F)F)C(C(=O)OC(C)C)=C(C)N1 (configuration not stated) | inactive: 47 µM
60 | O=C(CC12C3C4C1C1C2C3C41CC(=O)NO)NO (configuration not stated) | inactive: 62.2 µM
61 | COc1ccc(OC)c2c3c(ccc12)C(c1ccccc1)OC3=O (configuration not stated) | inactive: 89.3 µM
62 | Cn1cc(NC(=O)[C@H]2CCC(N)=N2)cc1C(=O)NCCC(=N)N | inactive: > 100 µM
63 | N=C1NC(c2ccc(Cl)cc2)=CC(c2cccc(Cl)c2)S1 (configuration not stated) | inactive: 42.7 µM
64 | CN(C)c1ccc(C2SCC(=O)N2NS(=O)(=O)c2cccc(C(=O)O)c2)cc1 (configuration not stated) | inactive: 66.1 µM
65 | COc1ccc(C(=O)C(C(=O)CCC(=O)Nc2ccc(Cl)c(Cl)c2)c2ccc(OC)cc2)cc1 (configuration not stated) | inactive: > 100 µM
66 | N#Cc1nc(CCCN2C(=O)c3ccccc3C2=O)oc1N | inactive: > 100 µM
67 | N#C/C(=C/c1ccco1)C(=O)c1ccccc1 | inactive: > 100 µM
68 | CCOC(=O)c1cc(C2CCN(Cc3ccccc3)C2=S)c(C(=O)C=[N+]=[N-])[nH]1 (configuration not stated) | inactive: 31.8 µM
69 | CC(C)C(=O)N1C(=O)O[C@@H](c2ccccc2)[C@H]1C | inactive: > 100 µM
70 | C=C1c2nc3ccccc3n2C=C(c2ccccc2)N1c1ccc([N+](=O)[O-])cc1 | inactive: 20.8 µM
71 | Cc1cc(N(CCC#N)CCC#N)ccc1/C=C/C(=O)Nc1ccccc1Cl | inactive: > 100 µM
72 | CC(C(O)c1ccccc1)C(O)(C(F)(F)F)C(F)(F)F (configuration not stated) | inactive: > 100 µM
73 | CC(C)c1ccccc1SCc1cc(=O)cc(CSc2ccccc2C(C)C)o1 | inactive: 19.5 µM
74 | O=C1CCC(=O)N1Sc1ccccc1 | inactive: > 100 µM
75 | O=C(O)c1c(CC(Cc2ccc3c(c2)CCC3)C(=O)O)ccc2c1CCC2 (configuration not stated) | inactive: > 100 µM

Row | Compound | GI50
76 | ClC1=C(Cl)C(Cl)(Cl)SS1 | inactive: > 10 µM
77 | COc1cc(C2C(C(=O)Nc3ccccc3C)=C(C)NC(C)=C2C(=O)Nc2ccccc2C)ccc1O | inactive: > 100 µM
78 | COC(=O)c1c2c(cc3c1CC1(C3)Cc3cc4c(c(C(=O)OC)c3C1)CCC4)CCC2 | inactive: > 100 µM
79 | O=S(=O)(N/N=C/c1ccc(Cl)cc1Cl)c1ccccc1 | inactive: > 100 µM
80 | O=C1Nc2cc([N+](=O)[O-])c(Br)cc2C1=O | inactive: 57.5 µM
81 | CC1=NN(C(=O)c2cc(Cl)cc([N+](=O)[O-])c2)C(=O)C1/N=N/c1ccccc1C(=O)O (configuration not stated) | inactive: > 100 µM
82 | CN(CC(=O)Nc1ccccc1C(=O)O)c1ccccc1 | inactive: > 100 µM
83 | Nc1n2nc(-c3ccccc3)sc2n[n+]1CC(=O)c1ccccc1 | inactive: 14.1 µM
84 | CN(C)CCNc1nc2c(c(=O)n(C)c(=O)n2C)n1C | inactive: > 100 µM
85 | Cc1cccc2c(N)c3cccc(C(=O)NCC[N+](C)(C)Cc4sc(N5CCOCC5)nc4[N+](=O)[O-])c3nc12 | inactive: 2.9 µM
86 | CC(C)COC1Sc2ccccc2S1 | inactive: 17.3 µM
87 | COC(=O)/C=C1/OC(c2ccccc2)=C(Br)C1=O | inactive: > 100 µM
88 | N#C/C(N)=C(C#N)/N=C/NCc1ccccc1 | inactive: > 100 µM
89 | O=C(CC(=O)n1nc(-c2ccccc2)c(/N=N/c2ccc(Cl)cc2)c1-c1ccccc1)Nc1ccc(Cl)cc1 | inactive: > 100 µM
90 | Brc1cccc(Nc2ncnc3sc4c(c23)CCC(Nc2cccc(Br)c2)C4)c1 (configuration not stated) | inactive: > 100 µM
91 | COC(=O)c1cc(CC(C)C)c2c(c1)[nH]c1ccccc12 | inactive: > 100 µM
92 | CC[C@@H](CCCCC1CC[C@H]2CC(=O)C[C@@H]12)OC (some centres not stated) | inactive: > 100 µM
93 | O=S1(=O)C[C@H](O)[C@H](O)CS1 | inactive: > 100 µM
94 | CCc1ccc(Nc2cc(=O)[nH]c(=S)n2C)cc1 | inactive: > 100 µM
95 | Cc1ccc(S(=O)(=O)N(CC(=O)O)c2ccccc2)cc1 | inactive: > 100 µM
96 | Cn1c(=O)nc2n(-c3cccc(Br)c3)c3ccccc3nc-2c1=O | inactive: 5.2 µM
97 | CC1(C)N=C(N)N=C(N)N1c1ccc(Cl)cc1 | inactive: 12.5 µM
